According to the supplement of paper PMC10369915:
The list shows a part of the results. Rule as the data show it: active = 3.2 or more and inactive = the rest. Most of these values are background signal.

Assays:
Assay in all cases: enrichment score (SH2-bound / input frequency) (ratio); bacterial display of known human phosphotyrosine sites (pTyr-Var adds point mutants) read by sequencing; higher = stronger binding; tyrosines were phosphorylated by kinases first
Details in all cases: peptide library: pTyr-Var
[1] = biological target: SHP2 C-SH2 domain E139D
[2] = biological target: SHP2 C-SH2 domain wild-type
[3] = biological target: SHP2 N-SH2 domain L43F
[4] = biological target: SHP2 N-SH2 domain T42A
[5] = biological target: SHP2 N-SH2 domain T52S
[6] = biological target: SHP2 N-SH2 domain wild-type

Measured: enrichment score
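Also: displayed peptides selected on beads carrying the immobilized SH2 domain, with library peptides lacking any tyrosine serving as negative controls.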

RRETPYGGGGG [FUS_Y526_R524T]
inactive: [1] 0.289 | [2] 0.158 | [3] 0.27 | [4] 0.226 | [5] 0.2 | [6] 0.145

DTDSSYCIPTA [GAB1_Y373]
inactive: [1] 0.52 | [2] 0.639 | [3] 0.636 | [4] 0.699 | [5] 0.694 | [6] 0.799

QGGRRYMMIVD [GAA_Y438]
inactive: [1] 0.659 | [2] 0.513 | [3] 0.517 | [4] 0.536 | [5] 0.411 | [6] 1.42

CSSGGYEPRGR [FUS_Y239_R234C]
inactive: [1] 0.488 | [2] 0.528 | [3] 0.532 | [4] 0.551 | [5] 0.503 | [6] 0.63

HVSISYDIPPT [GAB1_Y307]
inactive: [1] 1.04 | [2] 0.639 | [3] 1.16 | [4] 0.743 | [5] 1.02 | [6] 0.868

EATKGYLDDPT [G6PD_Y322]
inactive: [1] 0.652 | [2] 0.561 | [3] 0.592 | [4] 0.52 | [5] 0.512 | [6] 0.784

LSSLAYSGKDA [FXN_Y205]
inactive: [1] 1.13 | [2] 1.02 | [3] 0.873 | [4] 0.957 | [5] 0.746 | [6] 0.836

RRERLYGGGGG [FUS_Y526_P525L]
inactive: [1] 0.231 | [2] 0.268 | [3] 0.227 | [4] 0.205 | [5] 0.244 | [6] 0.168

LKVDVYGRSHK [FUT3_Y222]
inactive: [1] 0.667 | [2] 0.587 | [3] 0.879 | [4] 0.618 | [5] 0.608 | [6] 0.805

EATKGHLDDPT [G6PD_Y322_Y322H]
inactive: [1] 0.426 | [2] 0.55 | [3] 0.399 | [4] 0.414 | [5] 0.671 | [6] 0.683

FHIDHYLGKEM [G6PD_Y202_R198H_YF]
inactive: [1] 1.99 | [2] 1.68 | [3] 1.55 | [4] 1.9 | [5] 1.55 | [6] 1.42

RSSGGYEPRGC [FUS_Y239_R244C]
inactive: [1] 0.523 | [2] 0.542 | [3] 0.387 | [4] 0.389 | [5] 0.384 | [6] 0.551

QGGRCYMMIVD [GAA_Y438_R437C]
inactive: [1] 0.926 | [2] 1 | [3] 1.02 | [4] 0.927 | [5] 0.764 | [6] 1.36

FEELVYETVRV [FSHB_Y76_K72E]
inactive: [1] 1 | [2] 0.849 | [3] 0.952 | [4] 0.919 | [5] 1.13 | [6] 0.926

HLRAGYIIPLQ [GAA_Y822]
inactive: [1] 1.96 | [2] 2.92 | [3] 1.31 | [4] 2.01 | [5] 3.07 | [6] 1.96

LADKPYTFEYY [FXN_Y118_D122Y]
inactive: [1] 1.01 | [2] 0.729 | [3] 0.947 | [4] 1.06 | [5] 1.11 | [6] 1.08

RSSGGYEPRGR [FUS_Y239]
inactive: [1] 0.342 | [2] 0.378 | [3] 0.28 | [4] 1.17 | [5] 0.289 | [6] 0.402

GRERPYGGGGG [FUS_Y526_R521G]
inactive: [1] 0.388 | [2] 0.875 | [3] 2.84 | [4] 2.24 | [5] 1.73 | [6] 0.926

RRESPYGGGGG [FUS_Y526_R524S]
inactive: [1] 0.247 | [2] 0.313 | [3] 0.2 | [4] 0.27 | [5] 0.197 | [6] 0.48

QGGRHYMMIVD [GAA_Y438_R437H]
inactive: [1] 1.01 | [2] 1.22 | [3] 0.763 | [4] 1.19 | [5] 1.12 | [6] 1.37

LNEAVYTKMMT [G6PD_Y401_P396L]
inactive: [1] 0.701 | [2] 0.612 | [3] 0.683 | [4] 0.928 | [5] 0.465 | [6] 0.789

FARNCYVAGQF [G6PD_Y107_S106C_YF]
inactive: [1] 0.765 | [2] 0.97 | [4] 0.703 | [5] 0.619 | [6] 1.12
active: [3] 7.95

WNDLDYMDSRR [GAA_Y407]
inactive: [1] 0.893 | [2] 0.678 | [3] 0.725 | [4] 0.798 | [5] 0.751 | [6] 0.848

LKVDVYRRSHK [FUT3_Y222_G223R]
inactive: [1] 0.252 | [2] 0.273 | [3] 0.196 | [4] 0.182 | [5] 0.184 | [6] 0.219

HRERPYGGGGG [FUS_Y526_R521H]
inactive: [1] 0.998 | [2] 0.992 | [3] 1.08 | [4] 0.816 | [5] 0.915 | [6] 1.11

LADKPYTFEDY [FXN_Y118]
inactive: [1] 0.465 | [2] 0.807 | [3] 0.858 | [4] 0.829 | [5] 0.762 | [6] 0.727

WNNLDYMDSRR [GAA_Y407_D404N]
inactive: [1] 1.06 | [2] 0.957 | [3] 1.12 | [4] 0.98 | [5] 0.901 | [6] 0.888

LADKPYTFEDF [FXN_Y118_YF]
inactive: [1] 0.696 | [2] 0.876 | [3] 1.1 | [4] 0.688 | [5] 0.795 | [6] 0.973

PEAALYGRFTF [FYN_Y440_I445F]
inactive: [1] 1.04 | [2] 1.37 | [3] 0.883 | [4] 0.829 | [5] 1.05 | [6] 1.55

PNEAVYTKMMT [G6PD_Y401]
inactive: [1] 0.62 | [2] 0.733 | [3] 0.753 | [4] 0.802 | [5] 0.683 | [6] 0.724

FARNSYVAGQY [G6PD_Y107]
inactive: [1] 0.52 | [2] 0.457 | [3] 0.541 | [4] 0.481 | [5] 0.537 | [6] 0.501

FRIDHYLGKEM [G6PD_Y202_YF]
inactive: [1] 1.19 | [2] 1.07 | [3] 0.916 | [4] 1.17 | [5] 1.19 | [6] 1.08

VNKLVYENING [FRS2_Y306]
inactive: [2] 2.7 | [3] 2.94 | [6] 3.04
active: [1] 3.78 | [4] 9.19 | [5] 3.79

FSIDHYLGKEM [G6PD_Y202_R198S_YF]
inactive: [1] 1.28 | [2] 0.865 | [3] 1.08 | [4] 1.09 | [5] 1.27 | [6] 1.39

CRERPYGGGGG [FUS_Y526_R521C]
inactive: [1] 0.758 | [2] 0.744 | [3] 0.66 | [4] 0.9 | [5] 0.773 | [6] 0.528

TPLSAYQIPRT [GAB2_Y324]
inactive: [1] 0.846 | [2] 0.776 | [3] 0.744 | [4] 0.595 | [5] 0.554 | [6] 0.673

YHIDHYLGKEM [G6PD_Y202_R198H]
inactive: [1] 0.994 | [2] 0.948 | [3] 1.09 | [4] 0.844 | [5] 1.1 | [6] 0.731
